In the supplement of paper PMC4166925:
± gives the standard deviation of the averaged measurements. Whole data set: some 33,000 sequences, median “E-score (dimensionless, -0.5 to 0.5)” near -0.046, cut for the highest 2% near 0.36. The list shows a part of the results.

system: T1, SpTbr T-box DNA-binding domain (GST fusion); assay: PBM E-score of 8-mer (E-score (dimensionless, -0.5 to 0.5)); Tbr is Tbrain of the sea star Patiria miniata (Pm) or the sea urchin Strongylocentrotus purpuratus (Sp); higher = stronger binding preference; most listed sequences are background and not binding sites; conditions: the construct has about 5 more residues each side
T1 sequence: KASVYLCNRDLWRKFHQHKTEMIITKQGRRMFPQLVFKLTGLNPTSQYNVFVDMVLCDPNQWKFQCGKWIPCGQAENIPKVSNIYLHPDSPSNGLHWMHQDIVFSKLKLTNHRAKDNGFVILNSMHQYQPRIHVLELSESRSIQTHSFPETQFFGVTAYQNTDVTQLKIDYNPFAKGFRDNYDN
Outline: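 Using the Universal PBM Analysis Suite, every ungapped 8-mer received an enrichment E-score averaged over duplicate arrays. Probe intensities came from double-stranded Universal Agilent oligonucleotide arrays incubated with 200 nM GST-fused Tbr T-box DNA-binding domain in PBS (pH 7.5). That protein was expressed in BL21 E. coli at 20 °C and purified by glutathione affinity chromatography.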

Sequence	PBM E-score of 8-mer
CACAGCTG	0.287 ± 0.039
CTCACGGC	0.103 ± 0.0051
ATTGTACC	-0.214 ± 0.0067
GGTACCGA	-0.0862 ± 0.038
TACGCCGA	-0.14 ± 0.027
AAATAGGG	-0.0176 ± 0.071
GGCACTTA	0.255 ± 0.051
CAGTTAGG	-0.0733 ± 0.022
AGTCTTAG	-0.08108 ± 0.00026
ACCTTGAG	0.0234 ± 0.011
GGGTAAAC	0.0516 ± 0.039
GAACAGTA	0.00048 ± 0.058
ACCAGGGT	0.057 ± 0.067
CAGAATGG	-0.0564 ± 0.0011
CCGGCCCC	-0.303 ± 0.012
GTTATACA	0.0337 ± 0.053
AACTGTAC	-0.117 ± 0.088
GTGAATCA	0.141 ± 0.0059
AAATGTGT	0.435 ± 0.0081
AGACGTCT	-0.229 ± 0.058
AGCGAATA	0.0354 ± 0.019
CTGATGTA	-0.178 ± 0.016
TCAATGCA	-0.22 ± 0.069
AGTTCGAG	0.0209 ± 0.058
AAATTCAC	0.266 ± 0.021

Sequence	PBM E-score of 8-mer
GATAAATA	-0.0381 ± 0.072
GGCTAAAC	-0.169 ± 0.0099
TGGTTGAA	-0.163 ± 0.022
CACCGAAG	0.0762 ± 0.036
ATGATCCC	-0.256 ± 0.045
AACGTCAC	0.265 ± 0.046
GGGCGCAA	0.116 ± 0.043
GGATTATA	-0.0746 ± 0.014
CGCAAGGC	0.169 ± 0.058
ATCCTACA	-0.146 ± 0.057
CGGAGCAC	-0.183 ± 0.1
ATCATGCG	0.0497 ± 0.038
ACGGGGAG	0.00962 ± 0.00042
CGTAACAG	0.0475 ± 0.054
ATTCAAAG	-0.162 ± 0.075
CGCGGGTC	0.186 ± 0.018
CAACGACA	0.24 ± 0.0025
CCTTAGTA	-0.196 ± 0.029
AACTCCGC	-0.19 ± 0.015
CAGACCTA	-0.199 ± 0.0024
CTCGAAAA	-0.112 ± 0.075
CAAAAACG	-0.0456 ± 0.032
CGGGGGCA	-0.123 ± 0.051
CAACCAAG	-0.217 ± 0.01
AGTAACAG	0.052 ± 0.013

Sequence	PBM E-score of 8-mer
GACGAATC	0.112 ± 0.076
AGATACCC	-0.143 ± 0.013
CGCTCATA	-0.0486 ± 0.057
AAGCCCGG	-0.24 ± 0.028
GAACGATA	0.000605 ± 0.083
ACATGAGC	0.0251 ± 0.044
CAGACCCC	-0.342 ± 0.019
ACCTCTGG	0.0361 ± 0.051
AAACCCTA	-0.104 ± 0.0094
TAGAGAGA	-0.0974 ± 0.08
CCCCAGGG	-0.0372 ± 0.051
ACAAATCA	0.0598 ± 0.0013
AGAGATGG	-0.125 ± 0.015
GTGATAAC	0.395 ± 0.0074
GGATCACA	0.267 ± 0.017
CACCGCCA	0.221 ± 0.035
GCGTCGCC	0.203 ± 0.067
CAATTGCC	0.0264 ± 0.041
ATGCCCAC	-0.101 ± 0.065
CGGTTCTA	-0.0829 ± 0.072
CTCCAACC	-0.131 ± 0.039
AGACGGGG	-0.238 ± 0.026
CTGAATAA	-0.218 ± 0.0064
TAATTATA	-0.2 ± 0.0056
GGCGAAGA	0.0993 ± 0.047

Sequence	PBM E-score of 8-mer
CGCACTAC	0.13 ± 0.058
CCAGCTTC	-0.142 ± 0.058
CCCCTACG	-0.185 ± 0.019
CACGGTAG	-0.0942 ± 0.0082
ACCACTTG	0.0957 ± 0.0097
CAAGGATA	-0.175 ± 0.043
GTCGTTAA	0.11 ± 0.042
CCCAAAAC	-0.028 ± 0.014
AGCCCCTC	-0.0282 ± 0.03
CATTATGA	-0.0907 ± 0.081
CACTAGTG	0.243 ± 0.0097
GACGGATA	-0.143 ± 0.099
ATCGCTTA	0.0586 ± 0.017
CGGGGGAG	-0.272 ± 0.048
TGCACTAA	0.114 ± 0.11
AGCACATC	0.168 ± 0.039
AGATTCGG	-0.143 ± 0.046
GAGTATGA	-0.047 ± 0.066
ACTATTGA	-0.0122 ± 0.052
TCCGATAA	-0.0593 ± 0.01
AGTGGATA	-0.0344 ± 0.053
ACATGAGT	-0.0726 ± 0.023
ACTTGAGC	0.0871 ± 0.018
GATTTTAC	-0.1536 ± 0.0012
AATTCCTC	-0.138 ± 0.064

Sequence	PBM E-score of 8-mer
CCTATATC	-0.169 ± 0.011
GTCGTGGA	0.0519 ± 0.052
ACAAGACC	0.0171 ± 0.048
AAGTAGAA	0.0466 ± 0.046
ACCAGGAG	-0.132 ± 0.005
CGAAATAG	-0.13 ± 0.061
CTCGAAGC	0.0692 ± 0.023
TCTGCGCA	0.00691 ± 0.0057
CTCATAAG	-0.13 ± 0.037
AGAGGTAC	-0.195 ± 0.04
GGAACGAC	0.0236 ± 0.0013
GACGAAGC	0.0228 ± 0.026
CATCCCCC	-0.0617 ± 0.042
CGTCCGAC	-0.0181 ± 0.044
ATATAGTA	-0.0968 ± 0.019
GCCGCGAA	0.343 ± 0.0045
CTAATAGA	-0.157 ± 0.018
CTTCCATC	-0.0852 ± 0.02
GATCTTGC	-0.102 ± 0.053
CGACCAGA	-0.103 ± 0.0043
ATCAGTTG	0.0334 ± 0.0027
ATCGCACG	0.345 ± 0.027
GAGCGATC	-0.171 ± 0.037
TCGGCAAA	-0.0408 ± 0.027
AAGCGCGA	0.369 ± 0.007

Sequence	PBM E-score of 8-mer
GACATAGC	-0.224 ± 0.02
ATCGGGGC	-0.0619 ± 0.015
ACCAAGGA	-0.0953 ± 0.013
AATAGACT	-0.193 ± 0.023
ACTCTCCC	0.0826 ± 0.086
ATAACCCC	-0.167 ± 0.056
CAGTACTA	-0.174 ± 0.021
CCGTGTAC	-0.086 ± 0.054
GGGTAGGA	-0.292 ± 0.036
CTAAAGGA	-0.147 ± 0.0086
CCGAACGG	-0.251 ± 0.059
CTCCACAA	0.136 ± 0.0093
GCCCAAAA	-0.07691 ± 0.00033
ATTTTTTG	-0.0685 ± 0.073
AGTGGCAA	0.305 ± 0.0085
ATAAGTCG	0.0426 ± 0.1
AACCCTCC	-0.0929 ± 0.046
AACGTTGG	0.0328 ± 0.027
AGGAGACT	-0.108 ± 0.032
CACGCTCA	0.161 ± 0.041
CGTGCGCC	-0.0837 ± 0.052
ATGTGCGA	0.47362 ± 0.00026
GCGGATAC	-0.264 ± 0.029
ATTGGTCC	-0.197 ± 0.039
CACCAAGA	0.129 ± 0.058

Sequence	PBM E-score of 8-mer
ATGGCGGA	-0.214 ± 0.027
GAAATTTC	-0.116 ± 0.12
AGGACCGC	-0.228 ± 0.1
GAGTACTA	-0.3652 ± 0.0036
AGCTATAG	-0.0923 ± 0.041
CGACTACA	-0.13 ± 0.0069
GGGGGTAC	-0.117 ± 0.082
AGCAAAGA	-0.0779 ± 0.07
CAGCTCGC	0.187 ± 0.018
AGTTGAAT	0.00375 ± 0.031
AAAGAGCT	-0.035 ± 0.04
TCCACCAA	-0.0739 ± 0.048
AATTTCTC	-0.0542 ± 0.12
ATGGACTG	-0.21 ± 0.023
CTGAAAGC	-0.193 ± 0.033
GCAAGCGA	-0.0199 ± 0.027
CGACAACC	0.264 ± 0.045
AAGGGATA	-0.104 ± 0.029
AACCAAGA	-0.26 ± 0.0032
CTGGCTAC	-0.184 ± 0.0044
CGGGCTGC	-0.132 ± 0.11
GATTTATA	-0.0777 ± 0.041
